Test results from PubChem BioAssay AID1963576 (National Center for Advancing Translational Sciences (NCATS), 2024).
In all, about 46,000 compounds went through this assay and about 60 (0.1%) were called active. Roughly 3% stayed inconclusive and do not appear here. Calls follow the shape of the dose curve; as a rule, active = well fitted inhibition curve with a large enough effect; inconclusive = small, poorly fitted or top-dose-only effect; inactive = no such curve, though single readings can be large or run the other way. The list shows a part of the results.

Assay: Primary qHTS assay for Inhibitors of ovarian cancer metastasis using an organotypic tumor microenvironment (TME) model. Also: nearly all actives have a fitted effect of over 65% in size.
Details: SKOV3ip1-GFP adhesion/invasion on 3D omental model, fluorescence; series mostly up to 45.8 µM; activity change, negative = inhibition: at the top concentration
Description: PI: Ernst Lengyel MD., Ph.D. Department of Obstetrics and Gynecology, Section of Gynecologic Oncology University of Chicago Medicine, Chicago, Illinois. The tumor microenvironment (TME) is a key determinant of metastatic efficiency. We performed a quantitative high-throughput screen (qHTS) of diverse medicinal chemistry tractable scaffolds (44,420 compounds) and pharmacologically active small molecules (386 compounds) using a layered organotypic, robust assay representing the ovarian cancer metastatic TME. This 3D model contains primary human mesothelial cells, fibroblasts, and extracellular matrix, to which fluorescently labeled ovarian cancer cells are added. Initially, 100 compounds inhibiting ovarian cancer adhesion/invasion to the 3D model in a dose-dependent manner were identified. Of those, eight compounds were confirmed active in five high-grade serous ovarian cancer cell lines and were further validated in secondary in vitro and in vivo biological assays. […] Specifically, NCGC00117362 and PP-121 inhibited ovarian cancer adhesion, invasion, and proliferation, whereas milciclib inhibited ovarian cancer invasion and proliferation. […] To evaluate the clinical potential of NCGC00117362, structure - activity relationship studies were performed. […] The three compounds identified have promise as therapeutics for prevention and treatment of ovarian cancer metastasis.
PROTOCOL TABLE (as described by Inglese J, Shamu CE and Guy RK. 2007) SEQUENCE No. (e.g., 1, 2, 3, etc.); […] (e.g., Cells, Incubation, Reagent, etc.); VALUE; DESCRIPTION. 1; Cells; 4 uL; primary human omental fibroblast, black, clear bottom, low base, 1536-well Aurora assay plate. 2; Incubation; 48 hr; 37C. 3; Cells; 3 uL; 1,200 SKOV3ip1-GFP cells. 4; Compounds; 23nL; acoustic dispenser. 5; Incubation; 2 hr; room temperature. 6; Incubation; 16 hr; 37C. 7; Wash; 5 uL; 1x PBS. 8; Fixing; 5 uL; 4% paraformaldehyde (PFA). 9; Incubation; 15 min; room temperature 10; Wash, 5 uL; 1x PBS. 11; Detection; Fluorescence, excitation filter 488 nm, emission filter 509 nm. NOTES (numbers refer to Sequence numbers above) 1. For the 1,536-well format, 40 primary human omental fibroblasts and 400 mesothelial cells were seeded with 0.02 µg fibronectin and 0.02 µg collagen type I in 4 µL of growth media (2.3 mm2; Supplementary Fig. S1A). 2. Assay plates were incubated for 48 hours at 37 C. 3. After incubation, 1,200 SKOV3ip1-GFP were seeded in 3 µL of serum-free media (growth media minus FBS) on top of primary human omental cells. 4. Compounds or controls were added to each well immediately after the addition of the cancer cells. Compounds were screened in four doses (0.36-46 µmol/L), and the plates contained the positive control (Tomatine) in eight doses (0.035-75 µmol/L) and DMSO (equal volume controls) 5 - 6. The plates were incubated at room temperature for 2 hours and then at 37 degrees C for 16 hours. 7 - 10. Following incubation, the media were aspirated and each well washed with PBS (5 µL) and then fixed with 4% paraformaldehyde (PFA; 5 µL). After 15 minutes, the PFA solution was aspirated, PBS (5 µL) was added. 11. The number of GFP-labeled cells analyzed using a fluorescent cytometer TTP LabTech Acumen eX3 using 488 nm excitation filter and 509 nm emission filter. Data was normalized to the DMSO treated for negative and Tomatine treated wells for positive control. REFERENCES: Inglese J, Shamu CE and Guy RK, Reporting data from high throughput screening of small molecule libraries, Nature Chemical Biology, 2007, 3(8): 438-441. doi.org/10.1038/nchembio0807-438. Yasgar A, Shinn P, Jadhav A, Auld DS, Michael S, Zheng W, Austin CP, Inglese J and Simeonov A, Compound Management for Quantitative High-Throughput Screening. J. Assoc. Lab. Auto., 2008, 13: 79-89. doi: 10.1016/j.jala.2007.12.004.

Activity change, negative = inhibition, inactive:
CCc1ccc(Nc2nc3c(S(=O)(=O)c4cccc(Cl)c4)nnn3c3ccsc23)cc1 -11.9%
COc1ccc(-n2cc(C(=O)Nc3ccccc3C#N)c3ccccc3c2=O)cc1 1.24%
CNc1nc(Oc2ccc(=O)[nH]n2)nc(N2CCOCC2)n1 2.3%
Nc1nc(F)nc2c1ncn2[C@@H]1O[C@H](COP(=O)(O)O)[C@@H](O)[C@H]1O -16.6%
COc1ccc(OC)c(CNC(=O)CCC(=O)N2Cc3ccccc3Oc3ncccc32)c1 1.22%
COc1ccc(N2CC(NC(=O)C3CCCC3)CC2=O)cc1 (stereo not given) 1.29%
COc1ccccc1NC(=O)C1=C(C)Nc2ncnn2C1c1sccc1C (stereo not given) 3.7%
Cc1ccccc1CNC(=O)Cn1cc2c(n1)-c1c(oc(C(=O)N3CCCC3)c1C)CC2 -4.39%
Cc1nc(SCCOc2ccc(Cl)cc2)[nH]c(=O)c1Cc1ccccc1 -15.7%
COc1cccc(-n2cc(C(=O)Nc3ccccc3C(N)=O)c3ccccc3c2=O)c1 21.7%
Cc1ccc(NC(=O)CN2C(=O)COc3ccc(S(=O)(=O)N4CCOCC4)cc32)c(Cl)c1 -8.23%
CC(C)(C)c1ccc(S(=O)(=O)N2CCC(c3ccncc3)CC2)cc1 13.8%
CCOc1ccccc1NC(=O)c1nn(-c2ccc(OC)cc2)c(=O)c2c1c1ccccc1n2C 4.81%
O=C(c1cccc([N+](=O)[O-])c1)N1CCN(CCc2ccncc2)CC1 0.319%
Cc1cccc(C(=O)Nc2sc3c(c2C(=O)O)CCCC3)c1 11.6%
Cc1cc(C)cc(NC(=O)CN(C)S(=O)(=O)c2ccc3c(c2)CCC(=O)N3)c1 -2.77%
COc1ccc(N(CC(=O)N2CCN(c3ccc(F)cc3)CC2)S(=O)(=O)c2c(C)nn(C)c2C)cc1 25.7%
CC(=O)c1c(C)oc2ccc(N(C(=O)c3ccncc3)S(=O)(=O)c3ccc(F)cc3C)cc12 -4.04%
Cc1ccc(CNC(=O)c2cnn(-c3ccc(F)cc3F)c2C2CCN(C(=O)OC(C)(C)C)CC2)cc1 0.265%
CCCOc1ccc(CNC(=O)Cn2c(=O)oc3ccccc32)cc1 4.53%
COc1cc(Cl)c(NC(=O)CN(C)S(=O)(=O)c2ccc3[nH]c4c(c3c2)CCCC4)c(OC)c1 4.18%
COc1cccc(CNC(=O)c2cccc(NC(=O)c3nsc4ccccc34)c2)c1 -14.8%
CCc1ccc(Cn2c(CNS(=O)(=O)c3ccc(Cl)s3)nc3cccnc32)cc1 -1.53%
Cc1ccccc1NC(=O)CSc1nnc(-c2cccc(Cl)c2)o1 8.44%
COc1ccc(CNC(=O)C(C)n2nc(C)c3sc4ccccc4c3c2=O)cc1OC (stereo not given) 17.8%
CCOC(=O)c1cc2c(=O)n3ccccc3nc2n(CC2CCCO2)c1=NC(=O)c1ccccc1F (stereo not given) 3.76%
COc1cccc(CNC(=O)CCS(=O)(=O)c2cc3c4c(c2)CCN4C(=O)CC3)c1 23.8%
NC[C@H]1O[C@H](O[C@H]2[C@@H](O)[C@@H](O[C@H]3O[C@H](CO)[C@@H](O)[C@H](N)[C@@H]3O)[C@H](N)C[C@@H]2N)[C@H](N)C[C@H]1O 1.65%
COc1cc(-c2nc3cnccn3c2Nc2ccc(C(C)C)cc2)ccc1O -21.7%
O=C(CSc1n[nH]c(-c2ccccc2)n1)NCCc1ccccc1 4.85%
Cc1cccc(Nc2ncnc3c2cnn3C)c1C -6.27%
COc1ccc(C)c2sc(N(Cc3cccnc3)C(=O)COc3ccccc3)nc12 2.28%
COc1ccc(NC(=O)c2c(NCc3cccc(OC)c3)sc3c2CCC3)cc1 6.9%
CCc1ccc(S(=O)(=O)Nc2cc(-c3cn4ccccc4n3)ccc2C)cc1 -21.5%
COc1cccc(Nc2cc(-c3ccccc3)nc(C)n2)c1 11.3%
Cc1ccc(C)c(N2CCN(C(=O)c3cc(S(=O)(=O)N4CCCC4)c[nH]3)CC2)c1 -4.36%
Cc1ccc2c(c1)N(C(=O)N1CCC(C(=O)NC3CCCCCC3)CC1)CCO2 -0.267%
Cc1ccc(-n2ncc3c(N4CCN(C)CC4)ncnc32)cc1 -2.3%
COc1cc(OC)cc(C(=O)NCc2ccc3c(c2)CCN3C(=O)c2ccccc2)c1 -0.891%
CC(=O)N1CCCc2cc(S(=O)(=O)NCc3ccc(N(C)C)cc3)ccc21 9.65%
COc1cccc(CNC(=O)c2cc(-c3cccs3)nc3ccccc23)c1 0.987%
COc1ccc(Cn2c(C(=O)O)c(CNC3CCC(C)CC3)c3ccc(C)cc32)cc1 (stereo not given) -4.67%
COc1cc(C(=O)N2CCC(c3ccncc3)CC2)cc(OC)c1OC -0.392%
CCOc1ccc(Nc2c(S(=O)(=O)c3ccc(C)cc3)cnc3ccc(OC)cc23)cc1 -0.327%
COC(=O)c1ccc(NC(=O)CC2C(=O)N(c3ccccc3)C(=O)N2C2CCCC2)cc1 (stereo not given) 8.55%
COc1cc2nc(NCc3ccccc3Cl)n3nc(-c4cccnc4)nc3c2cc1OC -6.96%
COc1ccc(CC(=O)N2CC(=O)Nc3ccc(Br)cc3C2c2ccc(F)cc2)cc1OC (stereo not given) -8.24%
Cn1nc(-c2ccccc2)c(-c2ccccc2)c(C(=O)Nc2ccc(S(N)(=O)=O)cc2)c1=O 0.568%
COc1cccc(C(=O)Nc2ccc3nc(SCc4ccc(C)cc4)sc3c2)c1 6.69%
O=C(NCC(c1cccnc1)N1CCOCC1)C(=O)Nc1cccc(Cl)c1 (stereo not given) 6.48%
CSc1ccc(CCNC(=O)c2sc3ncccc3c2-n2cccc2)cc1 4.6%
CCOc1ccc(NC(=O)CN2C(=O)CCSc3ccc(S(=O)(=O)N4CCCC4)cc32)cc1 6.22%
COC(=O)c1ccc(NC(=O)N2CCc3c([nH]c4ccccc34)C2c2ccc(C)cc2)cc1 (stereo not given) -20.1%
COc1cccc(-n2cc(C(=O)NCCc3cccc(C)c3)c3ccccc3c2=O)c1 -0.776%
Cc1ccc(C)c(N2CCN(C(=O)C(C)n3nc(C)c4sc5ccccc5c4c3=O)CC2)c1 (stereo not given) -3.4%
COc1ccc(Cn2c(=O)c3oc4ccccc4c3n(CC(=O)Nc3cc(C)cc(C)c3)c2=O)cc1 -4.71%
Cc1c2cnn(CC(=O)NCCc3ccccc3)c(=O)c2c(C)n1Cc1ccccc1Cl 7.33%
O=C(O)c1ccc(-n2nc(-c3ccccc3O)nc2-c2ccccc2O)cc1 -4.57%
O=C(NCc1ccccc1Cl)C(=O)NCC(c1ccco1)S(=O)(=O)c1cccs1 (stereo not given) 3.52%
Cc1ccc(-c2nc3ccc(Br)cn3c2Nc2ccc3c(c2)OCO3)o1 -15.1%
O=C(COc1ccccc1F)NC1CC(=O)N(c2ccc3c(c2)OCCO3)C1 (stereo not given) 11.4%
CCc1ccc(NC(=O)CSc2nc(=O)n(Cc3cccnc3)c3c2CCC3)cc1 8.28%
COc1ccc(/C=C(\C#N)c2nc(-c3ccc(Cl)c(Cl)c3)cs2)cc1OC -4.59%
CCOc1ccc(NC(=O)CSc2nc3nc(C)c(Cc4ccccc4)c(C)n3n2)cc1 -5.55%
CC(=O)c1cccc(NC(=O)Cn2cnc3c2c(=O)n(C)c(=O)n3C)c1 -5.22%
COc1ccc(-n2c(CCC(=O)O)ccc2-c2ccccc2)cc1 2.91%
CCOC(=O)c1cccc(NC(=O)Cc2ccc(NC(=O)N3CCCCc4ccccc43)cc2)c1 5.73%
CCC(=O)N1CCc2cc(Br)cc(S(=O)(=O)N3CCCC(C(=O)Nc4ccc(CC)cc4)C3)c21 (stereo not given) 0.615%
CCOc1ccccc1CNS(=O)(=O)c1cnc(N)nc1 -18.7%
COc1ccccc1Cn1c(CNS(=O)(=O)c2ccc(Cl)s2)nc2cccnc21 -4.45%
CCOC(=O)c1ccc(N2CCN(c3cccc(Cl)c3)CC2)c(NC(=O)Nc2ccc(Cl)cc2)c1 -0.103%
O=C1Nc2c(c(=O)[nH]c(=O)n2-c2ccc(Cl)cc2)C1(NS(=O)(=O)c1ccccc1)C(F)(F)F (stereo not given) -9.43%
Cc1ccc(C)c(NC(=O)CCn2cnnn2)c1 -8.01%
O=C(Nc1ccccc1C(=O)OCc1cc(=O)n2c3c(sc2n1)CCCC3)c1ccc(Cl)cc1 -5.45%
Cc1nnc(N2CCN(c3ccccc3)CC2)c2c1nnn2Cc1ccc(F)cc1 9.59%
CCOC(=O)c1[nH]c(C)c(CCC(=O)N2CCN(c3cc(Cl)ccc3C)CC2)c1C -11.5%

outcome, inactive:
CC(=O)Nc1c(C(=O)Nc2ccccc2F)oc2ccccc12
COc1ccc2nc(NC(=O)c3nc(SCc4cccc(C)c4)ncc3Cl)sc2c1
CCOc1ccc(NC(=O)Cn2c(=O)n(Cc3ccccc3)c(=O)c3c4c(sc32)CN(C(C)=O)CC4)cc1
COc1ccc(NS(=O)(=O)c2ccc3c(c2)n(C)c(=O)c(=O)n3C)cc1Cl
COc1cccc(CNC(=O)CC(c2ccc(C)cc2)N2Cc3ccccc3C2=O)c1 (stereo not given)
CCOC(=O)C(CC)Sc1nnc2[nH]c(=O)cc(C)n12 (stereo not given)
CCCOc1ccc(C2C(=O)N(C3CCCCC3)CC(=O)N2CCC2=CCCCC2)cc1OC (stereo not given)
COc1ccccc1-c1ccnc2c(-c3ccc(Br)cc3)c(C)nn12
Cc1csc2nc(-c3cccc(NC(=O)c4ccccc4F)c3)cn12
Cc1nn2c(=O)cc(COC(=O)c3ccc(NC(=O)c4ccc(C(C)(C)C)cc4)cc3)nc2s1
CCCOc1ccc(C(=O)Nc2ccc(NC(=O)c3cccc(Cl)c3)cc2)cc1
CN(C)c1ccc(-c2nc(-c3ccncc3)no2)cc1[N+](=O)[O-]
COCCCNC(=O)CSc1nc2nc(C)c(Cc3ccccc3Cl)c(C)n2n1
Cc1cccc(-n2c(SCC(=O)Nc3ccccc3Cl)nc3n[nH]c(C)c3c2=N)c1
CCC1CCCCN1CCCNC(=O)c1ccc2c(c1)N(Cc1cccc(C)c1)C(=O)c1ccccc1S2(=O)=O (stereo not given)
COc1ccccc1CNC(=O)C1CCN(c2nn3c(=O)cc(C)nc3s2)CC1
CCc1ccccc1NC(=O)CSc1nc2c(oc3ccccc32)c(=O)n1-c1ccccc1
CC(=O)c1ccc(NC(=O)CN2C(=O)c3cccnc3Sc3ccccc32)cc1
COc1cc(C(=O)NCC(c2ccc(N(C)C)cc2)N2CCCC2)cc(OC)c1OC (stereo not given)
